This list was built around the results that the source calls inconclusive (neither active nor inactive); the mix of calls is not that of the screen. For some assays here: Potencies of inconclusive entries are doubtful fits and often do not repeat. Active and inactive are the calls of the source. Unless noted, calls come from the whole dose curve; as a rule, active = well fitted curve in the direction sought with a large enough effect; inconclusive = small, poorly fitted or top-dose-only effect, or another doubt; inactive = no such curve, though single readings can be large; an effect the other way counts as inactive or inconclusive. Peptide text beside a SMILES is read from it.
What was measured:
[1] = P-glycoprotein substrates identified in KB-8-5-11 adenocarcinoma cell line, qHTS therapeutic library screen (AID 1346987); details: activity change, negative = cytotoxicity: at 44.5 µM (top of the series); note: nearly all actives have a fitted effect of over 65% in size
Outline: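 KB-8-5-11, a colchicine-selected P-gp-overexpressing KB-3-1 subline, was grown without colchicine for the assay. Cells were seeded at 500 cells/well, dosed in concentration-response and incubated 72 h at 37 degree C, 5% CO2. Viability was read by CellTiter-Glo luminescence.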

[2] = Primary redox qHTS assay for identification of artifact compounds. (AID 1845223); note: potency is the fitted concentration of half-maximal effect
Outline: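 Amplex Red (25 uM) and HRP (250 mU/mL) in HBSS, with compounds for 15 min, then 250 uM DTT for 30 min, room temperature, dark. Fluorescence 525/598 nm read; normalized to DMSO and 10 uM DA3003; Hill fit.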

CASKI = assay: Primary qHTS to identify gynecologic anti-cancer compounds using libraries of approved drugs and bioactive compounds (AID 1345084); details: Gynecologic cancer cell panel viability, ATPlite luminescence, 48 h; series mostly up to 57.5 µM; note: nearly all actives have a fitted effect of over 55% in size; note: potency is the fitted concentration of half-maximal effect
Outline: (§1)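 Cells, 1,000 per well, plated 16 h, then exposed 48 h at 37 C to compounds. Viability by ATPlite luminescence after 15 min at room temperature.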

HeLa = assay: as above; details: Gynecologic cancer cell panel viability, ATPlite luminescence, 48 h; series mostly up to 57.5 µM
Outline: as §1

[3] = qHTS of pediatric cancer cell lines to identify multiple opportunities for drug repurposing: Primary screen for TC32 cells (AID 1347089); note: nearly all actives have a fitted effect of over 60% in size
Outline: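 In the primary qHTS, MIPE compounds were tested at 11 concentrations (0.78 nM to 46 µM) and NPC compounds at 8 (0.59 nM to 46 µM) on TC32 cells for 48 h. CellTiter-Glo luminescence gave viability.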

[4] = qHTS of pediatric cancer cell lines to identify multiple opportunities for drug repurposing: Primary screen for SK-N-MC cells (AID 1347093); details: SK-N-MC viability, CellTiter-Glo luminescence, 48 h; activity change, negative = cytotoxic: at 46 µM (top of the series)
Outline: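 Metabolically active cells were quantified by ATP-dependent luminescence (CellTiter-Glo, 15 min at room temperature) following 48 h treatment. Cells had been plated at 500-1,000 per well and settled for 5 h beforehand.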

[5] = qHTS of pediatric cancer cell lines to identify multiple opportunities for drug repurposing: Primary screen for SK-N-SH cells (AID 1347098); note: nearly all actives have a fitted effect of over 65% in size
Outline: (§2)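 Cells (500-1,000/well) rested 5 h, then received compounds for 48 h; metabolically active cells were measured by CellTiter-Glo luminescence. Final concentrations spanned up to 46 µM (MIPE, 11-point) or 0.59 nM-46 µM (NPC, 8-point) in primary screens, 11-point in follow-ups.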

[6] = qHTS of pediatric cancer cell lines to identify multiple opportunities for drug repurposing: Primary screen for OHS-50 cells (AID 1347103); details: OHS-50 osteosarcoma viability, CellTiter-Glo luminescence, 48 h; activity change, negative = cytotoxic: at 57.3 µM (top of the series); note: potency is the fitted concentration of half-maximal effect; nearly all actives have a fitted effect of over 40% in size
Outline: as §2

[7] = system: Zika virus NS2B-NS3 protease; assay: Primary screen GU AMC qHTS for Zika virus inhibitors (AID 1347154); note: potency is the fitted concentration of half-maximal effect; nearly all actives have a fitted effect of over 70% in size
Outline: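 Fluorogenic AMC-substrate cleavage by noncovalent NS2B-NS3 protease complex (25 nM, pH 8.0 Tris buffer with Tween 20) followed for 15 minutes at room temperature (~20% conversion). Percent inhibition from ex340/em450 signal change, fitted by 4-parameter Hill equation.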

[8] = qHTS to identify inhibitors of the type 1 interferon - major histocompatibility complex class I in skeletal muscle: primary screen against the NCATS Pharmaceutical Collection (AID 1347407);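 note: luminescence of HiBiT knocked into endogenous HLA-B as interferon-induced MHC class I level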; note: potency is the fitted concentration of half-maximal effect
Outline: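 HLA-B HiBiT myoblasts, dexamethasone-free growth medium + 4 ng/ml IFN-b; compounds pinned 1 h after seeding, […] from 46 uM; 24 h, 37 C, 5% CO2; lytic HiBiT detection, 10 min RT, luminescence.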

[9] = target: Calcium and integrin-binding protein 1 (Homo sapiens) (UniProt Q99828); assay: Primary qHTS for Identification of Calcium Integrin Binding Protein 1 (CIB1) Competitor (AID 1508620);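 note: GST tagged CIB1 binding a fluorescein labelled alphaIIb integrin peptide tracer; top concentration of the series differs between compounds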
Outline: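 CIB1-GST (1 uM final) and compound incubated 15 min at room temperature before adding FITC-alphaIIb peptide tracer (100 nM final). Competition for binding read by fluorescence polarization (ex 480, em 540) after another 15 min at room temperature.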

[10] = Primary qHTS for small molecule stabilizers of the endoplasmic reticulum resident proteome: Secreted ER Calcium Modulated Protein (SERCaMP) assay (AID 1508630); details: SH-SY5Y GLuc-SERCaMP (Gaussia luciferase released on ER calcium loss) secretion, thapsigargin, luminescence; activity change, negative = inhibition: at 38.4 µM (top of the series) unless noted; note: potency is the fitted concentration of half-maximal effect
Outline: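 GLuc-SERCaMP-expressing SH-SY5Y cells, pretreated 16 h with compound, are challenged with thapsigargin to empty ER calcium stores; after 4 h, coelenterazine is added directly to the medium and luminescence is imaged.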

[11] = target: Phospholipid hydroperoxide glutathione peroxidase GPX4 (Homo sapiens) (UniProt P36969); assay: Primary qHTS Assay for Inhibitors of Recombinant Selenoprotein Glutathione Peroxidase 4 (GPX4) (AID 1845192); details: activity change, negative = inhibition: at 50 µM (top of the series) unless noted; note: nearly all actives have a fitted effect of over 65% in size
Outline: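 NADPH consumption, followed by fluorescence at 340/450 nm between 0 and 15 min, reports GPX4 activity via coupled glutathione reductase (100 nM). Enzyme 200 nM was pre-exposed to compound 30 min; 0.5 mM cumene hydroperoxide and 1 mM GSH served as substrates.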

Es-2 = assay: Primary qHTS to identify gynecologic anti-cancer compounds using libraries of approved drugs and bioactive compounds (AID 1345084); details: Gynecologic cancer cell panel viability, ATPlite luminescence, 48 h; series mostly up to 57.5 µM; note: nearly all actives have a fitted effect of over 55% in size; note: potency is the fitted concentration of half-maximal effect
Outline: as §1

PA-1 = assay: as above; details: Gynecologic cancer cell panel viability, ATPlite luminescence, 48 h; series mostly up to 57.5 µM
Outline: as §1

SKOV3 = assay: as above; details: Gynecologic cancer cell panel viability, ATPlite luminescence, 48 h; series mostly up to 57.5 µM
Outline: as §1

[12] = target: Ubiquitin carboxyl-terminal hydrolase 1 (Homo sapiens) (UniProt O94782); assay: Inhibitors of USP1/UAF1: Pilot qHTS (AID 504865);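 note: rhodamine fluorescence freed from ubiquitin-rhodamine substrate followed over time; potency is the fitted concentration of half-maximal effect; nearly all actives have a fitted effect of over 35% in size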
Outline: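 1nM USP1/UAF1 + cpd, 15 min RT; start w/ Ub-Rho 150nM final; kinetic FL 480/540 nm, 6 reads q60 s. Buffer 50mM HEPES pH 7.8, 0.5mM EDTA, 1mM TCEP, 0.01% Tween-20, 0.1 mg/ml BSA.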

[13] = target: Peroxisome proliferator-activated receptor gamma (Homo sapiens) (UniProt P37231); assay: qHTS assay for small molecule antagonists of peroxisome proliferator-activated receptor gamma signaling (AID 588537; active = well fitted inhibition curve with a large enough effect in the signal ratio, with a control signal flat, not every such curve was filed as active; inconclusive = small, poorly fitted or top-dose-only effect, or effect the other way, or a change in a side signal; the % refers to the signal ratio;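 note: reporter cells co-stimulated with 50 nM rosiglitazone agonist during compound treatment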); details: HEK293 PPARg-UAS-bla, beta-lactamase ratio, antagonist mode; activity, negative = inhibition: at 76.8 µM (top of the series)
Outline: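 Antagonist mode, beta-lactamase reporter in HEK293; charcoal/dextran FBS 1%; 3000 cells/well, 37 C 6-6.5 h; cpd titration + rosiglitazone 50 nM final, 16 h 37 C; CCF4, 2 h RT; 460/530 nm; Hill fit → IC50, efficacy.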

[14] = target: Vitamin D3 receptor (Homo sapiens) (UniProt P11473); assay: qHTS assay for small molecule antagonists of vitamin D receptor signaling (AID 588541; calls by dose curve;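 note: receptor activated by calcitriol during compound treatment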); details: HEK293T VDR-UAS-bla, beta-lactamase ratio, antagonist mode; activity change, negative = inhibition: at 76.7 µM (top of the series) unless noted
[15] = qHTS assay for small molecule agonists of the antioxidant response element (ARE) signaling pathway measured by Nrf2-dependant transcriptional activity (AID 720636; active = well fitted curve in the direction sought with a large enough effect in the repeat runs; inconclusive = weak or mixed curves; inactive = no such curve, though single readings can be large; an effect the other way counts as inactive or inconclusive)
Outline: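 Quantitative HTS format in HepG2 cells stably expressing an ARE-luciferase reporter; 16 hr compound treatment at 37 C, luciferase signal detected with ONE-Glo.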

[16] = qHTS assay for cell viability of the p53RE-bla HCT-116 cell line (AID 743292); note: potency is the fitted concentration of half-maximal effect; nearly all actives have a fitted effect of over 55% in size
Outline: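 Viability of compound-treated p53RE-bla HCT-116 cells is taken from ATP-dependent luciferase luminescence. Treatment lasts 16 h at 37 C after a 5 h settling period; detection follows 30 min at room temperature.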

[17] = qHTS of pediatric cancer cell lines to identify multiple opportunities for drug repurposing: Primary screen for DAOY cells (AID 1347090); note: nearly all actives have a fitted effect of over 55% in size
Outline: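 Cell viability, CellTiter-Glo luminescence; 500-1,000 cells/well, 8- or 11-point titration, 48 h compound exposure at 37 degrees C, 5% CO2. Controls: DMSO neutral, bortezomib 2.3 µM final as positive.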

[18] = qHTS of pediatric cancer cell lines to identify multiple opportunities for drug repurposing: Primary screen for A673 cells (AID 1347092); details: A673 Ewing sarcoma viability, CellTiter-Glo ATP luminescence, 48 h; activity change, negative = cytotoxic: at 46 µM (top of the series); note: nearly all actives have a fitted effect of over 45% in size
Outline: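 48 h compound exposure, A673, 500-1,000 cells/well, 37 degrees C/5% CO2. MIPE: 11-point, 0.78 nM-46 µM; NPC: 8-point, 0.59 nM-46 µM (final). Readout CellTiter-Glo luminescence after 15 min RT.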

[19] = qHTS of pediatric cancer cell lines to identify multiple opportunities for drug repurposing: Primary screen for BT-37 cells (AID 1347094)
Outline: (§3)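 Plated cells (500-1,000 per well, growth media) were allowed to settle for 5 hours, treated with compound dilutions for 48 hours, then lysed with CellTiter-Glo for 15 min at room temperature before luminescence reading.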

[20] = qHTS of pediatric cancer cell lines to identify multiple opportunities for drug repurposing: Primary screen for Rh18 cells (AID 1347102); note: nearly all actives have a fitted effect of over 65% in size
Outline: as §2

[21] = qHTS of pediatric cancer cell lines to identify multiple opportunities for drug repurposing: Primary screen for Rh41 cells (AID 1347108);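 note: luminescence drop marks cytotoxic hits; nearly all actives have a fitted effect of over 70% in size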
Outline: as §3

[22] = Primary qHTS for inhibitors of nuclear receptor binding SET domain protein 2 (NSD2) in an RCH-ACV wild type WT cells (2C) (AID 1645877); details: activity change, negative = cell killing: at 44.9 µM (top of the series) unless noted; note: nearly all actives have a fitted effect of over 70% in size
OV90 = assay: Primary qHTS to identify gynecologic anti-cancer compounds using libraries of approved drugs and bioactive compounds (AID 1345084); details: Gynecologic cancer cell panel viability, ATPlite luminescence, 48 h; series mostly up to 57.5 µM; note: nearly all actives have a fitted effect of over 55% in size; note: potency is the fitted concentration of half-maximal effect
Outline: as §1

[23] = Drug repurposing screens with cells derived from glioblastoma tumor samples (AID 1345199); details: GBM patient neurospheres viability, ATP luminescence, 48 h; Potency: tumour line A unless noted; series mostly up to 46 µM; note: potency is the fitted concentration of half-maximal effect; nearly all actives have a fitted effect of over 40% in size
Outline: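 Four patient lines of CD133+ GBM neurospheres were screened at several concentrations; hits were retested in those lines plus three slower-growing GBM lines, using 48-hour treatment and ATP-based viability.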

AS120 = assay: qHTS profiling for inhibitors of Plasmodium falciparum proliferation (AID 504749); note: nearly all actives have a fitted effect of over 60% in size; note: potency is the fitted concentration of half-maximal effect; details: P. falciparum in erythrocytes, SYBR Green DNA, 72 h; series mostly up to 28.7 µM
Outline: (§4)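 Infected RBCs, 0.3% parasitemia/2.5% Hct final; cpd 72 h, 37 C, 5% CO2; lysis buffer with saponin/triton/SYBR Green I, o/n RT dark; FI 485/535; norm. to artemisinin (0.29 uM) and DMSO.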

ATS189 = assay: as above; details: P. falciparum in erythrocytes, SYBR Green DNA, 72 h; series mostly up to 28.7 µM
Outline: as §4

ATS95 = assay: as above; details: P. falciparum in erythrocytes, SYBR Green DNA, 72 h; series mostly up to 28.7 µM
Outline: as §4

CP217 = assay: as above; details: P. falciparum in erythrocytes, SYBR Green DNA, 72 h; series mostly up to 28.7 µM
Outline: as §4

CP252 = assay: as above; details: P. falciparum in erythrocytes, SYBR Green DNA, 72 h; series mostly up to 28.7 µM
Outline: as §4

CP315 = assay: as above; details: P. falciparum in erythrocytes, SYBR Green DNA, 72 h; series mostly up to 28.7 µM
Outline: as §4

N140 = assay: as above; details: P. falciparum in erythrocytes, SYBR Green DNA, 72 h; series mostly up to 28.7 µM
Outline: as §4

PC26 = assay: as above; details: P. falciparum in erythrocytes, SYBR Green DNA, 72 h; series mostly up to 28.7 µM
Outline: as §4

W2 = assay: as above; details: P. falciparum in erythrocytes, SYBR Green DNA, 72 h; activity, negative = inhibition: at 28.7 µM (top of the series)
Outline: as §4

Measured: Potency
Tags give direction and shape of the fitted curve.

Chain of UniProt O94782 (O94782 whole entry, looked up): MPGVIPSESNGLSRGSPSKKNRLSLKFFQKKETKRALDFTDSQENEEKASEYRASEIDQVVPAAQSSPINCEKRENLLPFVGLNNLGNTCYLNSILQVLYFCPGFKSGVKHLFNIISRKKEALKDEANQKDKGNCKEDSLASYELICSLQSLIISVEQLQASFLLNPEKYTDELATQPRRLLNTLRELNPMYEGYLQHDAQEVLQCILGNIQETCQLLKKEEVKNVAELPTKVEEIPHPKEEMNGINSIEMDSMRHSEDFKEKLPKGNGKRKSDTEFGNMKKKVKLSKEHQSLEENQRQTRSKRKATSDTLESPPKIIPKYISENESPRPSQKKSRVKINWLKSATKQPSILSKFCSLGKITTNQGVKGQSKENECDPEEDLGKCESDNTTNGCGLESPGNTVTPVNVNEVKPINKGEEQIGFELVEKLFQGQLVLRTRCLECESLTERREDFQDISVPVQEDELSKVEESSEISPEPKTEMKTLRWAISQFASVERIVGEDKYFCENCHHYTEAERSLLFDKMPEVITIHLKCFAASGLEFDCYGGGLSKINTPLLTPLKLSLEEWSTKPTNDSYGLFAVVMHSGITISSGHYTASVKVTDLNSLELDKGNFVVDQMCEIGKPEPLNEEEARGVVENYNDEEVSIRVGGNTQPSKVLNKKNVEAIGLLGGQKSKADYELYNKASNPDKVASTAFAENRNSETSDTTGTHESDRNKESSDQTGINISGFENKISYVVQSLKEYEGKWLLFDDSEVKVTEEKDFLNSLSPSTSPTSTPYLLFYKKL
Chain of UniProt P36969 (P36969 whole entry, looked up): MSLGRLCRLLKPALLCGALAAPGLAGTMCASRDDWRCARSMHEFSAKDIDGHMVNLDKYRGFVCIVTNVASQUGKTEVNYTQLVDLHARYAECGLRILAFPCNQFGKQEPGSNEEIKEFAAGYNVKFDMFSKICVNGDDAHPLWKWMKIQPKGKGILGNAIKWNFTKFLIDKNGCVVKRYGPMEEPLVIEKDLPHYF
Chain of UniProt P37231 (P37231 whole entry, looked up): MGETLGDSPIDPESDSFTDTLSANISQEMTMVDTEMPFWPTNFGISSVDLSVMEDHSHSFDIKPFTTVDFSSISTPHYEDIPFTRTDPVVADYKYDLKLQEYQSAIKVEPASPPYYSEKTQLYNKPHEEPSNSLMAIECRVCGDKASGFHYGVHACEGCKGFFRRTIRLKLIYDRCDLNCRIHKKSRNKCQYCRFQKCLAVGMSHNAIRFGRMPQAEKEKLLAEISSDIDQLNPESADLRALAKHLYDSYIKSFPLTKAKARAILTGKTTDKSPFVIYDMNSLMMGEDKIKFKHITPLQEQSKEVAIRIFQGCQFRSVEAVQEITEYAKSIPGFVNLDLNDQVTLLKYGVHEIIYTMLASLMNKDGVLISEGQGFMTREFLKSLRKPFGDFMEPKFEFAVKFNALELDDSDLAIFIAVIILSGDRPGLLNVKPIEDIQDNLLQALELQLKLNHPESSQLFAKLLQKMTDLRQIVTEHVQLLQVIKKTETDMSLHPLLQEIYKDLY
Chain of UniProt P11473 (P11473 whole entry, looked up): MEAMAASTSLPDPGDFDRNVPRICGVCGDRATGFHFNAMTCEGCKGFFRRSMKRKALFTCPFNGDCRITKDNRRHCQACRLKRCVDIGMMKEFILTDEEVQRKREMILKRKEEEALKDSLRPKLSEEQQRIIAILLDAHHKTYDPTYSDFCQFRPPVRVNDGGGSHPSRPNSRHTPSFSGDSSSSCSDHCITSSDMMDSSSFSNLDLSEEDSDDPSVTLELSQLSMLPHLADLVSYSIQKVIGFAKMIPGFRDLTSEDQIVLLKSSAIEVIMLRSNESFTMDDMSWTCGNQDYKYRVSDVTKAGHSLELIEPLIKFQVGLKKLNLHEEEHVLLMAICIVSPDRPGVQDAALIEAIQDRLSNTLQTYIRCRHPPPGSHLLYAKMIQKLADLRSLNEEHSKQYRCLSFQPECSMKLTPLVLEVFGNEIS
Chain of UniProt Q99828 (Q99828 whole entry, looked up): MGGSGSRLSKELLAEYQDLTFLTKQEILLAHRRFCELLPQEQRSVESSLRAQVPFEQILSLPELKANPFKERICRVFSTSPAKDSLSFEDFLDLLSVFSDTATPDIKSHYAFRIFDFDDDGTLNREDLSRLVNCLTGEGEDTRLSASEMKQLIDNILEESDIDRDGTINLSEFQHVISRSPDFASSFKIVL

CC(=O)NC(Cc1ccccc1)C(=O)NC(C(=O)O)C(C)C (stereo not drawn) (Ac-Phe-Val-OH; configuration not given here)
inconclusive: [2] 29.9 µM [activator, single point] | CASKI 12.6 µM [rising, partial curve, poor fit]
inactive: [1] | HeLa

CCCC(=O)OCOC(=O)C1=C(C)NC(C)=C(C(=O)OC)C1c1cccc(Cl)c1Cl (stereo unspecified)
inactive: [3] | [4] | [5] | [9] | [11] | CASKI | Es-2 | PA-1
inconclusive: [6] 24.6 µM [cytotoxic, partial curve, poor fit] | [7] 12.6 µM [inhibitor, partial curve] | [8] 21 µM [inhibitor, partial curve] | [10] 31.6 µM [inhibitor, partial curve, poor fit] | SKOV3 = 2.82 µM [rising, partial curve, poor fit]

CCCCCCCCCCCCCCCCO
inconclusive: [12] 63.1 µM [inhibitor, partial curve, poor fit] | [16] 70.8 µM [cytotoxic, single point] | [23] 10 µM [inhibitor, partial curve, poor fit] | ATS189 = 17.8 µM [inhibitor, single point]
not listed: [1] | [2] | HeLa | [3] | [4] | [5] | [6] | [7] | [9] | [10] | [11] | Es-2 | PA-1 | SKOV3
inactive: all other assays above

Reference: PubChem BioAssay (NCATS)
